In all, about 33,000 sequences were measured (“E-score (-0.5 to 0.5)”: median about -0.012, highest 2% from about 0.27 on). The list shows a part of the results.
Target: T1, Vhr1 (UniProt P40522)
T1 sequence: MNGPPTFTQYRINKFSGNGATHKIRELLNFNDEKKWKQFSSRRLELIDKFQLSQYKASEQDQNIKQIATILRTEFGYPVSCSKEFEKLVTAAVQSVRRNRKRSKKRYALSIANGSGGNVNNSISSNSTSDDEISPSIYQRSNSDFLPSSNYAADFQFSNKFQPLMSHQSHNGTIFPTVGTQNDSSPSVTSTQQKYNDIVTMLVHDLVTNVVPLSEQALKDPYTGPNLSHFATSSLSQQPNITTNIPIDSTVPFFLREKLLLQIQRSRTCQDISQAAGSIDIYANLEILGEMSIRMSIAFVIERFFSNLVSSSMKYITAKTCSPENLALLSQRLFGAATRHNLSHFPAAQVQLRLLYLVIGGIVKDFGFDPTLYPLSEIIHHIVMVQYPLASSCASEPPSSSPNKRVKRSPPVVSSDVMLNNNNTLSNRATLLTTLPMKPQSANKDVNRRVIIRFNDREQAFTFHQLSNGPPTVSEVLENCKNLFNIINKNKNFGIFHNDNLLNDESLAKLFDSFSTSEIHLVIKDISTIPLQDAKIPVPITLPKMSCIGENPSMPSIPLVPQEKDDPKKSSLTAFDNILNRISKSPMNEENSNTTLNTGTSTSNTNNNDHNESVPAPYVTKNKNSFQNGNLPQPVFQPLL
Assay: PBM E-score (8-mer binding enrichment) (E-score (-0.5 to 0.5)); higher = stronger / more preferred TF binding; most listed sequences are background and not binding sites
Conditions: protein concentration: 200 nM; construct: GST-full length
Outline: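 E-scores (a modified Wilcoxon-Mann-Whitney statistic) were assigned by the Universal PBM Analysis Suite to every ungapped eight-base word pooled with its reverse complement. The input came from universal all-10-mer Agilent arrays made double-stranded by primer extension and probed with GST-tagged yeast transcription factors at about 100-200 nM. Fluorescent anti-GST detected bound protein, and masliner normalised the scans.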

Sequence | PBM E-score
GACTCACA | 0.44
CTGAACAG | -0.0135
GAACAAGC | -0.0662
ATCATTAG | 0.148
GAAAAGCC | -0.12
ATCATACA | 0.264
ACCTGGTA | -0.00726
ATTAGGTG | 0.133
ACAGCTAA | -0.0476
AGGTCAGG | 0.0385
ATCTGGAC | 0.0267
GGATTTCA | 0.00907
ATTTTAGC | -0.141
TATGGGCA | 0.131
CGCGTGTC | 0.213
GCGGCCCC | -0.0525
TGTTTAAA | -0.122
AGGGCTAC | -0.0114
AGCAGCTC | -0.25
ATGGGTCC | 0.0892
CAGATCGC | 0.0959
AGCGGGAG | -0.064
ATATCCCC | 0.132
GGGTCACC | 0.0897
CGCTCATC | -0.0759

Sequence | PBM E-score
GCGGAAGA | 0.0151
CTTGGTCA | -0.133
GCACGCTA | -0.121
GCGAATCA | 0.345
GCTTAGAC | -0.36
CCAAGGCC | -0.199
ATGAGTGG | 0.162
ACGCGCAT | 0.0217
CAATAAAG | 0.048
CCCCTGGA | -0.121
TAAGAGCA | -0.00784
ATAACGTA | 0.112
ATGCTGTG | 0.116
CACGAACA | 0.168
ATGTTTGA | 0.028
TCCTGGCA | 0.1
CGCCGGGA | 0.0158
GCGCTCCC | 0.0224
CATGTATA | 0.28
AGGTCTCG | -0.0622
GTTTCGAA | -0.151
AGCCCCCA | -0.281
TCCTTGCA | -0.0963
GTACGAAC | 0.152
GCAGAACA | 0.091

Sequence | PBM E-score
GACCAGAA | 0.0475
GCGAGGCC | -0.143
ACCAACCG | 0.00393
GCCGGGCC | -0.0591
ACGAATAA | 0.0738
GGGCCTTA | -0.279
CTACTGGA | 0.0706
TCCGTGAA | -0.165
ACGATCGC | -0.0057
AGCGAACA | -0.103
AGGGACAA | -0.142
GTAAAGGA | -0.0902
CACTTGAG | 0.0278
ACCCCCTA | -0.206
AGATATCC | 0.147
AAATGATT | 0.187
ATGTCAGA | -0.0499
AGGGAGCC | -0.0866
ACAATCAC | 0.275
CTGGCTAA | 0.0471
CAATGGTA | 0.129
ACTGTGTC | 0.125
ACGAACAA | -0.0446
AATTAGGG | -0.114
AGTGTAAC | -0.0587

Sequence | PBM E-score
CACGCACA | 0.0774
GCCACACA | 0.152
GAAGAATA | -0.201
CGGGGACG | 0.0859
TGGATGAA | -0.0248
CGCCCCCG | -0.0889
ACTTACGC | -0.0448
GACTCTGA | 0.252
GTCGGGGA | 0.101
AAGGCCCC | -0.385
GCAGGCGC | -0.0603
ATTCGAAC | 0.055
GCGCACGC | 0.00055
ATACTCGG | 0.132
AAGAATAC | 0.0498
AGTGTTTC | -0.109
TGCTCACA | 0.0508
AGTTGAAC | 0.007
CCGAGGAG | 0.0404
CGGAGTAG | -0.0207
AGATAGCT | -0.202
GACAATTA | 0.056
ACGAGGCG | 0.0194
GCACCCAA | -0.0528
ATGGGTTG | 0.229

Sequence | PBM E-score
CTAAGCAG | 0.0326
TCAATCCA | 0.0906
GCGATCAA | -0.0459
GTCATGTA | 0.141
GATTGGCA | -0.056
ACCAGCAA | 0.118
CTACCCTC | 0.0437
ACGAGCCT | -0.0437
AGCTAGAC | -0.0711
CGTAGGCC | -0.0834
GCCCTCGA | -0.151
AGCGTATC | -0.0457
GGACTTAC | -0.163
ATGAGATA | 0.134
CCCGTCTC | 0.168
TCCGAGGA | -0.0878
CCGGTCCG | 0.112
CCAGCAAC | 0.00595
CGGATTTA | 0.0743
AGAGGCAT | 0.0247
AGACATAC | 0.18
ACTCCGGC | 0.24
GATGCTAA | -0.15
AAGCATAA | -0.0698
GACAACTA | -0.0145

Sequence | PBM E-score
ATCGTAGC | 0.0741
AAAGAGAC | -0.0829
ATGCATCG | 0.0603
AGTGTGAA | 0.0173
AGCGTCCG | -0.0168
GAATGTTA | -0.0495
AATTTAGG | 0.0535
ACGGCGAC | 0.0771
TATTTCCA | -0.0666
CGGAGCCC | -0.187
AGAAGACA | -0.187
AGGAGAGC | -0.236
CTATAGCA | -0.0305
AAGCGTTG | -0.0505
ACCGTGAC | 0.225
ACTTGACC | -0.18
CGTGGTAC | 0.0596
AAAAATGG | -0.146
TCCATACA | 0.0932
ATACAGTA | 0.133
CCGGGCAG | 0.108
CAGCCGCG | 0.222
CTCCGGTC | 0.163
GAATGGCC | -0.0334
CAGTCGTC | -0.0857

Sequence | PBM E-score
CATCGAGC | 0.0195
CCTCCTGA | -0.0681
GGCTCACA | 0.0821
GACACGTA | -0.0499
CAGCGTAG | -0.0211
CATGTCGG | 0.178
AAGGACCG | -0.251
AGCGTCTC | -0.169
CATTCAAG | -0.0791
CTACTTAA | -0.204
AGTCCTAG | -0.205
CCTCCGTA | 0.0807
GAGTATGC | 0.0702
TGGACTAA | 0.0529
ACACACGT | 0.0925
AGCAAAAA | -0.167
GGATGACA | -0.053
ATCCAAGG | -0.0179
CTTAGTTA | 0.121
ACAGTCGG | 0.165
TAACACGA | 0.212
AGTCCTAA | 0.0704
